Measured values taken from the supplement of paper PMC10320760.
The data scatter; read single values as rough.

B1: Ydj1; a variant is named by its letters at X, in order (parent)
chain: MVKETKFYDILGVPVTATDVEIKKAYRKCALKYHPDKNPSEEAAEKFKEASAAYEILSDPEKRDIYDQFGEDGLSGAGGAGGFPGGGFGFGDDIFSQFFGAGGAQRPRGPQRGKDIKHEISASLEELYKGRTAKLALNKQILCKECEGRGGKKGAVKKCTSCNGQGIKFVTRQMGPMIQRFQTECDVCHGTGDIIDPKDRCKSCNGKKVENERKILEVHVEPGMKDGQRIVFKGEADQAPDVIPGDVVFIVSERPHKSFKRDGDDLVYEAEIDLLTAIAGGEFALEHVSGDWLKVGIVPGEVIAPGMRKVIEGKGMPIPKYGGYGNLIIKFTIKFPENHFTSEENLKKLEEILPPRIVPAIPKKATVDECVLADFDPAKYNRTRASRGGANYDSDEEEQGGEGVQCXXX

Variants of: B1
Experiment: enrichment factor, frequency at 37 °C / frequency at 25 °C (thermotolerance selection) (ratio); higher = more growth at 37 °C, higher likelihood of farnesylation
Settings: with Saccharomyces cerevisiae ydj1Δ (yWS304); selective temperature 37 °C; reference temperature 25 °C
Description: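 Pooled library of all 8,000 Ydj1-CXXX C-terminal motif variants (native CASQ replaced by C + three variable residues, one codon per amino acid) expressed from a CEN plasmid in S. cerevisiae ydj1Δ (yWS304). The library was grown in SC-Ura liquid to A600 ~2 (~8 generations) at permissive 25 °C or selective 37 °C. Reads from 8 and 7 replicates were pooled and variants counted by NGS. Enrichment factor = frequency at 37 °C / frequency at 25 °C, with a +1 correction; it reports Ydj1-dependent thermotolerance, used as a read-out of farnesylation by yeast FTase.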

Row | Variant | enrichment factor
1 | HMQ | 3.57
2 | HMG | 2.27
3 | HMT | 2.45
4 | HMF | 2.61
5 | HMH | 5.1
6 | HMI | 1.16
7 | HMK | 1.58
8 | HMM | 0.386
9 | HME | 2.24
10 | HMR | 0.198
11 | HMC | 1.43
12 | HMN | 2.27
13 | HMV | 2.8
14 | HMP | 1.06
15 | HMD | 1.88
16 | HMS | 5.38
17 | HML | 3.47
18 | GMR | 0.213
19 | GMQ | 1.62
20 | GML | 1.11
21 | GME | 1.51
22 | GMT | 1.17
23 | GMC | 0.602
24 | GMS | 1.53

Row | Variant | enrichment factor
25 | GMH | 1.81
26 | GMV | 0.872
27 | GMM | 1.49
28 | GMN | 1.81
29 | GMG | 1.82
30 | GMD | 1.48
31 | GMK | 0.219
32 | GMP | 0.0989
33 | GMI | 1.16
34 | GMF | 1.42
35 | QMQ | 3.4
36 | QMS | 2.66
37 | QMD | 1.62
38 | QME | 1.74
39 | QMN | 2.73
40 | QMT | 2.79
41 | QMK | 1.49
42 | QMF | 1.38
43 | QMM | 1.61
44 | QMC | 1.3
45 | QMH | 2.2
46 | QMI | 1.16
47 | QMG | 3.72
48 | QMR | 0.69

Row | Variant | enrichment factor
49 | QML | 1.16
50 | QMP | 0.163
51 | SMQ | 2.59
52 | SMM | 1.78
53 | SMF | 3.37
54 | SMT | 1.27
55 | SMK | 1.53
56 | SMN | 1.93
57 | SMR | 0.195
58 | SMC | 0.267
59 | SMH | 3.86
60 | SMS | 3.32
61 | SME | 1.7
62 | SML | 0.842
63 | SMG | 2.47
64 | SMD | 1.85
65 | SMI | 0.897
66 | SMP | 0.139
67 | AMT | 1.31
68 | AMI | 1.18
69 | AME | 1.78
70 | AMH | 3.21
71 | AMC | 1.44
72 | AMG | 2.37

Row | Variant | enrichment factor
73 | AMV | 2.23
74 | AMK | 1.31
75 | AMF | 2.05
76 | AMS | 2.11
77 | AMR | 0.746
78 | AML | 1.16
79 | AMN | 1.8
80 | AMP | 0.241
81 | AMD | 1.63
82 | AMM | 1.77
83 | AMQ | 1.82
84 | TMR | 0.558
85 | TML | 0.831
86 | TMT | 2.07
87 | TMG | 1.7
88 | TMK | 2.16
89 | TMN | 1.95
90 | TMS | 2.6
91 | TMF | 1.85
92 | TMI | 0.695
93 | TMH | 2.45
94 | TMC | 1.54
95 | TMQ | 2.8
96 | TMD | 2.11

Row | Variant | enrichment factor
97 | TMA | 1.26
98 | TME | 1.64
99 | TMM | 0.745
100 | TMP | 0.112
101 | MMS | 1.74
102 | MMH | 1.84
103 | MMK | 1.42
104 | MMP | 0.194
105 | MMM | 2.15
106 | MMV | 1.59
107 | MMR | 0.221
108 | MMN | 1.97
109 | MME | 1.38
110 | MMT | 2.01
111 | MMC | 1.71
112 | MMQ | 1.71
113 | MML | 1.45
114 | MMD | 1.71
115 | MMF | 0.869
116 | MMG | 1.85
117 | MMI | 0.463
118 | WMT | 2.14
119 | WMR | 0.141
120 | WME | 1.65

Row | Variant | enrichment factor
121 | WMP | 1.53
122 | WMC | 0.29
123 | WMH | 1.27
124 | WMN | 2.08
125 | WML | 3.19
126 | WMG | 2.03
127 | WMI | 1.65
128 | WMQ | 3.03
129 | WMD | 1.79
130 | WMK | 0.264
131 | WMA | 1.16
132 | WMS | 1.85
133 | WMF | 1.35
134 | WMM | 2.7
135 | KMT | 4.68
136 | KMG | 2.32
137 | KMC | 0.98
138 | KMK | 1.08
139 | KMQ | 2.74
140 | KMH | 3.85
141 | KMD | 1.79
142 | KML | 2.25
143 | KMN | 3.43
144 | KMS | 3.1

Row | Variant | enrichment factor
145 | KMR | 0.301
146 | KMM | 1.22
147 | KMF | 1.3
148 | KME | 1.4
149 | KMI | 3.04
150 | KMP | 0.1
151 | KMV | 2.63
152 | IMR | 0.629
153 | IML | 1.43
154 | IMN | 1.92
155 | IMT | 1.53
156 | IMG | 1.57
157 | IMC | 2.2
158 | IMP | 0.143
159 | IMI | 1.49
160 | IMQ | 1.94
161 | IMV | 2.45
162 | IMM | 1.04
163 | IMH | 2.46
164 | IMD | 1.36
165 | IMS | 2.03
166 | IMF | 1.45
167 | IME | 1.45
168 | IMK | 1.22

Row | Variant | enrichment factor
169 | LMF | 3.11
170 | LMV | 1.95
171 | LMP | 0.129
172 | LMI | 1.93
173 | LMH | 2.92
174 | LMS | 2.16
175 | LMC | 2.01
176 | LMR | 0.456
177 | LMQ | 1.7
178 | LME | 1.35
179 | LMK | 1.56
180 | LMG | 2.06
181 | LMN | 1.58
182 | LML | 1.59
183 | LMM | 1.83
184 | LMD | 1.51
185 | LMT | 2.9
186 | PMG | 1.56
187 | PMP | 0.16
188 | PMD | 2.05
189 | PMI | 0.704
190 | PMS | 1.77
191 | PME | 1.46
192 | PMM | 1.09

Row | Variant | enrichment factor
193 | PMN | 1.07
194 | PMK | 1.51
195 | PMF | 0.785
196 | PMR | 0.263
197 | PML | 0.526
198 | PMQ | 1.29
199 | PMH | 1.26
200 | PMC | 0.882
201 | PMT | 1.64
202 | DMT | 1.57
203 | DMS | 2.66
204 | DMC | 1.27
205 | DML | 1.31
206 | DMD | 0.529
207 | DMG | 1.47
208 | DMF | 1.48
209 | DMI | 1.86
210 | DMN | 1.91
211 | DMV | 1.41
212 | DMP | 0.148
213 | DMQ | 1.64
214 | DMR | 0.148
215 | DMH | 1.3
216 | DME | 0.29

Row | Variant | enrichment factor
217 | DMM | 1.6
218 | DMK | 0.145
219 | EMF | 2.32
220 | EMQ | 2.58
221 | EMD | 1.41
222 | EMS | 1.79
223 | EME | 1.31
224 | EMC | 1.26
225 | EMP | 0.119
226 | EMR | 0.633
227 | EMK | 1.38
228 | EML | 1.65
229 | EMI | 2.21
230 | EMN | 1.56
231 | EMM | 2
232 | EMT | 1.58
233 | EMG | 1.72
234 | EMH | 1.94
235 | EMV | 1.59
236 | VMI | 0.772
237 | VMH | 3.19
238 | VMT | 1.02
239 | VMA | 0.632
240 | VMQ | 2.42

Row | Variant | enrichment factor
241 | VMG | 1.56
242 | VMK | 3.01
243 | VMS | 0.61
244 | VMR | 1.77
245 | VMF | 1.08
246 | VME | 1.56
247 | VMN | 1.93
248 | VMD | 2.27
249 | VMC | 0.876
250 | VMM | 0.732
251 | VMP | 0.199
252 | VML | 0.701
253 | NMR | 0.301
254 | NMM | 1.68
255 | NMH | 2.79
256 | NMC | 1.32
257 | NMT | 2.08
258 | NMI | 1.48
259 | NMG | 1.43
260 | NME | 1.51
261 | NMQ | 2.1
262 | NML | 1.78
263 | NMK | 0.987
264 | NMP | 0.115

Row | Variant | enrichment factor
265 | NMF | 1.07
266 | NMD | 2.01
267 | NMN | 1.55
268 | NMS | 2.68
269 | YMC | 2.03
270 | YMF | 3.86
271 | YMI | 3.01
272 | YMQ | 1.78
273 | YMK | 0.36
274 | YMH | 6.37
275 | YMG | 1.81
276 | YMN | 2.75
277 | YMD | 2.21
278 | YMA | 1.74
279 | YME | 1.85
280 | YMR | 0.165
281 | YMM | 1.16
282 | YMT | 4.05
283 | YMS | 1.16
284 | YML | 1.9
285 | YMP | 0.675
286 | FMD | 1.57
287 | FMP | 1.86
288 | FML | 3.76

Row | Variant | enrichment factor
289 | FMS | 1.16
290 | FMT | 1.67
291 | FMF | 0.891
292 | FMR | 0.14
293 | FMQ | 1.54
294 | FMH | 5.94
295 | FME | 1.77
296 | FMN | 2
297 | FMK | 0.238
298 | FMV | 2.12
299 | FMM | 1.01
300 | FMI | 3.87
301 | FMC | 0.98
302 | FMG | 3.9
303 | CMR | 0.768
304 | CMM | 0.737
305 | CMI | 1.21
306 | CMC | 0.76
307 | CME | 2.15
308 | CMS | 0.901
309 | CMD | 1.84
310 | CMH | 1.8
311 | CMK | 1.3
312 | CML | 1.18

Row | Variant | enrichment factor
313 | CMG | 1.29
314 | CMT | 0.813
315 | CMQ | 2.57
316 | CMP | 1.02
317 | CMN | 1.36
318 | CMF | 0.767
319 | RMM | 0.862
320 | RME | 1.64
321 | RMG | 2.21
322 | RMR | 0.176
323 | RMP | 0.12
324 | RMD | 1.55
325 | RMK | 1.39
326 | RMQ | 2.96
327 | RML | 1.04
328 | RMT | 2.46
329 | RMC | 0.345
330 | RMF | 1.24
331 | RMI | 1.12
332 | RMH | 1.69
333 | RMS | 1.98
334 | RMN | 1.26
